PubChem BioAssay AID588453 (National Center for Advancing Translational Sciences (NCATS), 2011)
Out of some 390,000 compounds screened, about 4,000 (1%) were called active. The shares of active, inactive and inconclusive entries below differ from those in the screen. The call rests on the fitted dose curve; in most records, active means well fitted inhibition curve with a large enough effect; inconclusive means small, poorly fitted or top-dose-only effect; inactive means no such curve, though single readings can be large or run the other way. A potency beside an inconclusive call is a rough fit, not a confirmed value.
Further: nearly all actives have a fitted effect of over 65% in size.
On the % scale 0 is the no-effect control and ±100 the full control effect; potency means the concentration at half of the fitted maximal effect; tags describe the fitted curve by direction and shape.

Each molecule was assayed against Thioredoxin reductase 1, cytoplasmic (Rattus norvegicus) (UniProt O89049) (assay: qHTS Assay for Inhibitors of Mammalian Selenoprotein Thioredoxin Reductase 1 (TrxR1): qHTS). Conditions: recombinant rTrxR1, NADPH fluorescence consumption, selenite substrate; series mostly up to 114 µM; activity change, negative = inhibition: at the top concentration.
UniProt O89049, sequence (O89049 whole entry, looked up): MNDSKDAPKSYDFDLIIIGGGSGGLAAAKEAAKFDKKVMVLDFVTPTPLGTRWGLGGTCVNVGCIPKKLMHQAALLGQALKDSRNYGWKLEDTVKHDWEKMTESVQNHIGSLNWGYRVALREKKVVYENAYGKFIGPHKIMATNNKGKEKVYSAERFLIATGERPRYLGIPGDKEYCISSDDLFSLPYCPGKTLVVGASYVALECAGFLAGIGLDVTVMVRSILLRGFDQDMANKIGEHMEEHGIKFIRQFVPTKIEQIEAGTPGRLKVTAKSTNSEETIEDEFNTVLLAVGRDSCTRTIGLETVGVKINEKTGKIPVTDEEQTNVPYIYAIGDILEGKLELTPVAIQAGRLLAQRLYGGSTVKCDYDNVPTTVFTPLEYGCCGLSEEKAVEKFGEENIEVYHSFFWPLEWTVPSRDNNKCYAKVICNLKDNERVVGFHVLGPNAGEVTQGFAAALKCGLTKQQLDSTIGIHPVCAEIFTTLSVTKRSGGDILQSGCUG
Summary of the method: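 Rat TrxR1 (90 nM in the dispensed reagent) was pre-reduced with 400 uM NADPH for 5 min at room temperature, then incubated with compound for 15 min. After 400 uM selenite was added, NADPH fluorescence (Ex 340/Em 450 nm) was followed for 8 min.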
With `O=C(CCS(=O)(=O)c1cccc2nonc12)NCc1ccc(Cl)cc1` the Potency was inconclusive: 25.1 µM [inhibitor, single point]. With `O=C(NCc1cccnc1)NC1CC(=O)N(c2ccc3c(c2)OCCO3)C1` (stereo not drawn) the “activity change, negative = inhibition” value was inactive: 12%. `Cc1ccc(CNC(=O)[C@]2(C(F)(F)F)C[C@H](CCc3ccccc3)CCCO2)o1` was tested, and the Potency was inconclusive: 70.8 µM [inhibitor, single point]. `CCc1nnc(NC(=O)c2nc(S(C)(=O)=O)ncc2Cl)s1` was tested, and the Potency was inconclusive: 14.1 µM [inhibitor, partial curve]. With `Cc1ccc(/C=C2/NC(=O)N(Cc3ccccc3)C2=O)s1` the Potency was inconclusive: 15.8 µM [inhibitor, full curve]. With `Cc1ccc(-c2cc(C(=O)NN)n[nH]2)o1` the “activity change, negative = inhibition” value was inactive: 5.28% [at 57.1 µM]. For `COc1cccc(C(=O)CN2CCN(S(=O)(=O)c3ccc(Cl)cc3)CC2)c1`, the Potency was inconclusive: 39.8 µM [inhibitor, single point]. For `Cc1ccc(C(=O)N2CCN(c3ccc(NC(=O)c4cccs4)cc3)CC2)cc1`, the Potency was inconclusive: 89.1 µM [inhibitor, single point]. In the case of `COCCNC(=O)C1Nc2ccc(C(F)(F)F)cc2C2C=CCC12` (stereo not drawn), the “activity change, negative = inhibition” value is reported as inactive: 7.24%. For `CS(=O)(=O)N(CCc1ccccc1)CC(=O)N1CCN(Cc2ccccc2)CC1`, the Potency was inconclusive: 44.7 µM [inhibitor, partial curve]. For `COC(=O)c1sc(N2C(=O)C(O)=C(C(=O)c3ccc(C)o3)C2c2ccco2)nc1C` (stereo not drawn), the Potency was inconclusive: 44.7 µM [inhibitor, partial curve]. For `Cc1ccc(/C=C/C(=O)N2CCN(S(=O)(=O)c3cccs3)CC2)o1`, the Potency was inconclusive: 79.4 µM [inhibitor, partial curve]. In the case of `CCOc1cc(/C=C2\C(=O)ON=C2c2ccccc2)cc(Br)c1O`, the Potency is reported as active: 14.1 µM. For `COCCCNC(=O)CNC(=S)N(Cc1ccccc1)Cc1cccnc1`, the “activity change, negative = inhibition” value was inactive: 5.4%. With `O=C(NC(C(=O)c1ccccc1)N1CCOCC1)c1cccs1` (stereo not drawn) the Potency was inconclusive: 14.1 µM [inhibitor, partial curve, poor fit]. In the case of `O=C(NC(=S)NNC(=O)c1cnccn1)c1ccc(F)cc1`, the Potency is reported as inconclusive: 12.6 µM [inhibitor, full curve]. In the case of `COc1cccc(N2CCN(C(=O)c3ccc(CS(=O)c4cccc(Cl)c4)o3)CC2)c1` (stereo not drawn), the “activity change, negative = inhibition” value is reported as inactive: -3.39%. In the case of `O=C(Nc1ccc2oc(-c3cccnc3)nc2c1)c1ccc(-c2cccc(OC(F)(F)F)c2)o1`, the Potency is reported as inconclusive: 39.8 µM [inhibitor, partial curve]. In the case of `O=C(C[n+]1ccccc1)Nc1ccccc1[N+](=O)[O-]`, the Potency is reported as inconclusive: 44.7 µM [inhibitor, partial curve]. For `Cc1cc(C)cc(Nc2ncc3c(n2)CC(c2ccco2)CC3=O)c1` (stereo not drawn), the Potency was inconclusive: 56.2 µM [inhibitor, partial curve, poor fit]. `C/C=C\C=C/C(=O)Nc1cccc(C2=NOC3(C2)C[C@@H](C(N)=O)N(C(=O)[C@H]2CCC(=O)N2)C3)c1` (stereo partly drawn) was tested, and the Potency was inconclusive: 20 µM [inhibitor, full curve, poor fit]. `CCCN1CCN(c2ncnc3sc(C(=O)Nc4ccc(N(CC)CC)cc4C)c(C)c23)CC1` was tested, and the Potency was inconclusive: 39.8 µM [inhibitor, single point]. For `Cc1cc(-n2c(=O)c(C#N)cc3c(=O)n4ccccc4nc32)no1`, the Potency was inconclusive: 63.1 µM [inhibitor, single point]. With `Cc1cccc(Cc2cnc(NC(=O)c3ccc4c(c3)CC(c3ccccc3)OC4=O)s2)c1` (stereo not drawn) the “activity change, negative = inhibition” value was inactive: 16.7%. In the case of `C/C(=N\Nc1nc2c(s1)CCCC2)c1ccccc1`, the Potency is reported as active: 50.1 µM. In the case of `CCOC(=O)c1cc(-c2ccc(/C=N\n3cnnc3)o2)ccc1Cl`, the “activity change, negative = inhibition” value is reported as inactive: -2.33%. `COC(=O)c1ccccc1NC(=O)c1nc(S(=O)(=O)Cc2ccccc2F)ncc1Cl` was tested, and the Potency was inconclusive: 3.16 µM [inhibitor, full curve, poor fit]. For `Cc1ccc2c(c1)C1CN(C)CCC1N2S(=O)(=O)c1ccc(C(C)C)cc1` (stereo not drawn), the Potency was inconclusive: 79.4 µM [inhibitor, single point]. `Oc1ccc(Nc2ncnc3ccccc23)cc1` was tested, and the “activity change, negative = inhibition” value was inactive: -6%. For `Cc1cc(C)cc(NC(=O)Oc2ccccc2N2CCCCC2)c1`, the “activity change, negative = inhibition” value was inactive: 11.8% [at 57.1 µM]. For `Oc1c(CN2CCCCC2)ccc2cccnc12`, the Potency was inconclusive: 100 µM [inhibitor, single point]. With `Cc1ccc(C)c(S(=O)(=O)Nc2ccc3[nH]c(=O)[nH]c3c2)c1` the “activity change, negative = inhibition” value was inactive: -5.46%. For `COc1ccc(C2(C)NC(=O)N(CC(=O)NC3CC3)C2=O)cc1` (stereo not drawn), the Potency was inconclusive: 89.1 µM [inhibitor, partial curve, poor fit]. In the case of `CCN1CCN(C(=O)C2c3cc(OC)c(OC)cc3C(=O)N(C)C2c2ccc(SC)cc2)CC1` (stereo not drawn), the Potency is reported as inconclusive: 89.1 µM [inhibitor, partial curve, poor fit]. In the case of `COc1ccccc1NC(=O)C(C)NC(c1ccccc1)c1ccccc1` (stereo not drawn), the Potency is reported as inconclusive: 89.1 µM [inhibitor, single point]. For `CCCCn1nnc(NC(=S)NC(=O)c2cccs2)n1`, the Potency was inconclusive: 50.1 µM [inhibitor, partial curve, poor fit]. In the case of `O=C(/C=C/c1c(F)cccc1Cl)Nc1nc2ccccc2[nH]1`, the “activity change, negative = inhibition” value is reported as inactive: -8.29%. In the case of `O=C(COC(=O)/C=C/C(=O)OCC(=O)NC12CC3CC(CC(C3)C1)C2)NC12CC3CC(CC(C3)C1)C2`, the Potency is reported as inconclusive: 44.7 µM [inhibitor, partial curve]. For `CCCn1c(C)cc(-c2csc(N)n2)c1C`, the Potency was inconclusive: 79.4 µM [inhibitor, single point]. In the case of `Cc1csc(NC(=O)c2cccnc2)n1`, the “activity change, negative = inhibition” value is reported as inactive: 14.4%. For `O=C(NC(=S)Nc1ccc(N2CCOCC2)cc1)c1ccc2c(c1)OCCO2`, the Potency was inconclusive: 14.1 µM [inhibitor, full curve]. For `O=C(/C(=C/c1ccccc1)n1cncn1)c1ccc(Cl)cc1Cl`, the Potency was inconclusive: 39.8 µM [inhibitor, partial curve, poor fit]. For `Cn1c(C(=O)NCC2CCCO2)cc2c(=O)n(C)c3ccccc3c21` (stereo not drawn), the Potency was inconclusive: 89.1 µM [inhibitor, partial curve, poor fit].
